According to article PMC12136788:
This is one part of the list.

T1: UNK ZnF1-3 (human, UniProt Q9C0B0 31-174)
T1 sequence: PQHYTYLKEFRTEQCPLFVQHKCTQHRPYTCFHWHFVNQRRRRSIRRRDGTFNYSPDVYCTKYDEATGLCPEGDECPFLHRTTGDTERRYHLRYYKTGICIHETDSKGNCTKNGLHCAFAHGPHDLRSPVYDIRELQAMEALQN

B1: chr2:216981417:216981418:+_ENSG00000079246_ENST00000392132|hu_hu|motif|central (ssRNA)
RNA: GGGAGUUCUACAGUCCGACGAUCCUGAUACUGAUCCCCACCAGAAAGGGGAUUGUCAGUGCCAUCUGUACCAAACAGGACGGAAGCAAUCUCAUCCUUGUUCUCAGCAAACACCUGUCGCUGUACAAACAUGGUUAUCACCUUCAACAGAGGAUUGAGCAUCA
B2: chr11:51804959:51804960:-_ENSMUSG00000020390_ENSMUST00000020657|perfect_dup|motif|central (ssRNA)
RNA: GGGAGUUCUACAGUCCGACGAUCCAUUUUGGAUAAAAACCUAACGGUUGGUGGUUUAUUUGGAUAUUCUUCAGAAAAUUCGGUUACGGGUUUAAAAGUACCAUCUUCAAAGGGUGUCCCUUCUGGUCCAAAUAUAACUGCAUUCAACAGAGGAUUGAGCAUCA
B3: chrX:67713009:67713010:-_ENSMUSG00000073139_ENSMUST00000101506|mus_hu|motif|central (ssRNA)
RNA: GGGAGUUCUACAGUCCGACGAUCUAAGGAGAGCAAAAAUAGUGGCUUUAGCUACAUUUUUUACACACUGAGCAGGAAAGUCGGAACCAUCCCGUUCCCCUGUACCCCAAAGAGAACAGGGCUUGCUGGAGGCCAGUGCCAAGGCAACAGAGGAUUGAGCAUCA
B4: chr1:58468927:58468928:-_ENSMUSG00000026034_ENSMUST00000148330|mus_mus|mus_mus_mus_hu_False|8_68 (ssRNA)
RNA: GGGAGUUCUACAGUCCGACGAUCAAUUACUGAAAAAGAUGUUCAUUACCUUAGCUAUGUACUUAAUUUAAUAAAGCACCCAAACAAAAUAAACAUGGCAAUAUAAAAAUGUUAAGAAUUUACAAAGAUUAAAAGCUUAACUUACAACAGAGGAUUGAGCAUCA
B5: chr7:127875444:127875445:+_ENSMUSG00000046096_ENSMUST00000060175|mus_mus|motif|central (ssRNA)
RNA: GGGAGUUCUACAGUCCGACGAUCACGUGUGUAAAGCAUUAGAGGGAAUAUUGUAUUGCUUAAGAGUUUGGUGAAGAUCGGCGGAUACAGAUAAAAUGCGAUUUUUAUGGAAGAGCAGAACUAGUGUUGUAAAUAGCCAAAACACAACAGAGGAUUGAGCAUCA
B6: 12196434_12199287_829_3pUTR_ENSMUSG00000039458_ENSMUST00000071993|mouse|control|control (ssRNA)
RNA: GGGAGUUCUACAGUCCGACGAUCGGGUAAGUGGCAAAGAAAGUUGUCGUUGAUGUUUGAAACGUGAUCCUUUCUGCUGGCCUCUGUCCAGUUUUGGCUUUUCCACAUAGAGAGGGUUUCUAAGUAACGUCUGUGCUUUGGGUUCAACAGAGGAUUGAGCAUCA
B7: chr14:22664367:22664368:+_ENSMUSG00000021771_ENSMUST00000022293|mus_hu|FALSE|FALSE (ssRNA)
RNA: GGGAGUUCUACAGUCCGACGAUCAGAGAGUGUAAGCUUCACACCAGGCCUCAGAGUCUGAGUAUAGCCUACUCCAAUUAAGCUAGAGUUGUUGACUUUUGCAGAAAUGGAAGCAGUGGGAUCCAACUGAUAUUUAGCUGCAAUCAACAGAGGAUUGAGCAUCA
B8: chr2:158287933:158287934:+_ENSMUSG00000027652_ENSMUST00000141497|mus_mus|motif|central (ssRNA)
RNA: GGGAGUUCUACAGUCCGACGAUCAAGCGGUUGCUCCAGCAUUGCCAGGAUGACACUGUUAUCCAAAACAAAGUACCGGAAACGGUGCUUGUUUAUGGUUGGCAGCCUGGAGUAUUUGAUCAGAGUGGUCUCAUUCACCAGACUCAACAGAGGAUUGAGCAUCA
B9: chr11:86991360:86991361:+_ENSMUSG00000018548_ENSMUST00000041282|mus_mus|FALSE|FALSE (ssRNA)
RNA: GGGAGUUCUACAGUCCGACGAUCUUCUCGAAUGAUAUUUUUUGUAGGAUCAUUGCACGACUGGUGAACCAUUUCUACACGAUAUUCAUACUUGGAAGUUUCAGGCAAGCCAGCCGAUAGUUCCAAAAAUACAGAUAAAUAAUACAACAGAGGAUUGAGCAUCA
B10: chr1:216680306:216680307:-_ENSG00000196482_ENST00000408911|hu_mus|FALSE|FALSE (ssRNA)
RNA: GGGAGUUCUACAGUCCGACGAUCUCAGACCUUGGCCUCCAGCAUUUCCAAAAAAAGUUUGUGCAUGGGCACUUUGCCUUCGAGUUUGAUGUUGUAGAAGUGCUGGACUGCCUUGGUGGAGGUCUGCCUCAGCAGCGGCAGCGUCAACAGAGGAUUGAGCAUCA
B11: chr4:124533079:124533080:-_ENSMUSG00000042763_ENSMUST00000064444|mus_mus|motif|central (ssRNA)
RNA: GGGAGUUCUACAGUCCGACGAUCUCCACUGUGCUAAAGCUAGCCAGCCUAGCCAUACACUGAUGUGUCCCAGACUGACCGGGUGGUCAGCACUUAGGAGAACUGGAAGAGGAAUGUGUACUGGCAUACACCAUUUCAUACUUACAACAGAGGAUUGAGCAUCA
B12: chr1:39494564:39494565:+_ENSG00000168653_ENST00000372967|hu_hu|hu_hu_hu_mus_True|18_88 (ssRNA)
RNA: GGGAGUUCUACAGUCCGACGAUCAUGCAUUCGCCUCAUCGUUUUGUGCCGAAGCAAGCACUCUUCGAAGUCAUCGAACUCUAUCUUGCACUCCUUUUUCGCCCGGGUCCCACCGAUUCCAUGUGCACACUCUAUCCACUCUUUCAACAGAGGAUUGAGCAUCA
B13: chr15:76911001:76911002:-_ENSMUSG00000033565_ENSMUST00000166610|mus_mus|motif|central (ssRNA)
RNA: GGGAGUUCUACAGUCCGACGAUCCUCAAGAGCAUGACAAAAGAAAACACACGUUUACAUUAGAUGUUCACCGUGCCCACGGUUGUUUCCUAUUUGAAAACAGUGCAAACAGGUAACUUAUGCUUUAAACACCAAGACCCCUUCCAACAGAGGAUUGAGCAUCA
B14: chr7:107556004:107556005:+_ENSG00000091140_ENST00000440410|hu_hu|motif|central (ssRNA)
RNA: GGGAGUUCUACAGUCCGACGAUCGAUGCGUUGAAAGUUUUUAGAUAUCUCCAUAUCAAUUCCAACUCCACCUACAUGACCGGAAAAUUCAACUGCUGUCACAUCUGCACCAAGUCUUUGCCAAACUGAACCCAAUUCUACACCCAACAGAGGAUUGAGCAUCA

These binders were tested against T1, UNK ZnF1-3 (assay: nsRBNS (natural sequence RNA bind-n-seq); RBNS binding buffer (assumed for nsRBNS): 25 mM Tris pH 7.5, 150 mM KCl, 3 mM MgCl2, 0.01% Triton X-100, 500 ug/ml BSA, 20 U/ml SUPERase-In, 4 C; UNK is unkempt and MSI1 is Musashi-1; names of the RNAs are library labels; protein concentration not given here; high values mean tight binding).
In the case of B1, the binding signal is reported as 0.656 enrichment R.
B2 showed a binding signal of 0.829 enrichment R.
B3 was tested, and the binding signal was 0.68 enrichment R.
For B4, the binding signal was 1.13 enrichment R.
B5 gave a binding signal of 1.7 enrichment R.
B6 was tested, and the binding signal was 0.648 enrichment R.
Binder B7 has a binding signal of 1.06 enrichment R.
In the case of B8, the binding signal is reported as 0.283 enrichment R.
B9 was tested, and the binding signal was 0.843 enrichment R.
Binder B10 has a binding signal of 0.465 enrichment R.
B11 was tested, and the binding signal was 0.547 enrichment R.
B12 showed a binding signal of 0.655 enrichment R.
Binder B13 has a binding signal of 0.948 enrichment R.
B14 showed a binding signal of 1.24 enrichment R.
